# Measured values as given in ChEMBL document CHEMBL1157539, “Thousands of chemical starting points for antimalarial lead identification” (Nature, 2010).
# “And” between values parts separate entries of the source, which are not always exact repeats. Identical values can stand only once. The full ranking holds about 13,000 compounds; the median of “IFI” is about 4, and the highest 2% start at about 17. The list shows a part of the results.
# Assay: GSK_TCMDC: Inhibition Frequency Index (IFI). The number of non-kinase HTS assays where a compound showed > 50 % inhibition, expressed as a percentage of the number of such assays in which the compound was tested (-0 is zero)
# Assay type: functional
row,Compound,IFI
1,O=C(Nc1ccc(Cl)cc1Cl)NC1CCN(CCCCCNC(=O)C2CC2c2ccc(Cl)c(Cl)c2)CC1 (stereo unspecified),13.6%
2,CN1CCN(CCCN(Cc2csc(-c3ccc(CNCc4ccccc4)cc3)n2)C(=O)Nc2cc(Cl)cc(Cl)c2)CC1,7.33%
3,COc1ccc(C2CCN(CCN3CCC(NC(=O)c4ccc(-c5cccc(C(F)(F)F)c5C(F)(F)F)cc4)CC3)CC2)c(OC)c1,3.1%
4,Cc1cc(NC(=O)Nc2ccc(Oc3ccccc3)cc2)c2ccccc2n1,5%
5,COc1ccc(CNC2CCN(C)CC2)cc1-c1ccc(OC)c(S(=O)(=O)NCc2ccccc2)c1,4.81%
6,c1ccc(-c2ccc(-c3csc(Nc4ccncc4)n3)cc2)cc1,11.9%
7,Oc1cccc(-c2nc3cc(C4=NC5CCCCC5N4)ccc3[nH]2)c1 (stereo unspecified),1.44% and 0.73%
8,Cc1[nH]c(C)c(-c2csc3ccccc23)c(=O)c1Cl,-0%
9,O=C(NCCCCN1CCC(c2c[nH]c3ccccc23)CC1)c1ccc(-c2ccc(C(F)(F)F)cc2)cc1,2.26%
10,CCC1CN2CCc3c([nH]c4ccc(OC)cc34)C2CC1CC1NCCc2cc(OC)c(OC)cc21 (stereo unspecified),3.05%
11,N=C(N)NC(=O)Nc1cc(Br)c(Cl)c(Br)c1,5.11%
12,Cc1[nH]c(C)c(-c2ccc(OCc3ccc(F)cc3)cc2)c(=O)c1Cl,0%
13,COc1ccc(CNCc2ccsc2)cc1-c1ccc(OC)c(S(=O)(=O)NCCN2CCCC2)c1,2.91%
14,CCc1cc(N2CCN(c3ccccc3F)CC2)nc(SCc2ccc(C(=O)NC3CC3)o2)n1,5%
15,Cc1ccc(-n2c(C)cc(C(=O)CN3C(=O)NC(Cc4ccccc4)C3=O)c2C)cc1 (stereo unspecified),2.24%
16,CCc1cn(C)c2c(N3CCCC3=O)cc(C(=O)N[C@@H](Cc3ccccc3)[C@H](O)CNC(C)(C)c3cccc(C(F)(F)F)c3)cc12,3.92%
17,O=[N+]([O-])c1cccc(CNCC2CCN(Cc3ccc4ccccc4c3)CC2)c1,2.86%
18,O=C(/C=C/c1ccc(Cl)c(Cl)c1)NC1CCN(CCNC(=O)c2cccc(Cl)c2)CC1,3.4%
19,CC(C)CCN1C(=O)C(NC(=O)Oc2ccccc2)C(=O)N(CC23CC4CC(CC(C4)C2)C3)c2ccccc21 (stereo unspecified),0.78%

row,Compound,IFI
1,CCCCSc1ccc2nc(-c3c[nH]c4ccc(C#N)cc34)cn2c1,0%
2,Cc1nc(N)nc(N)c1-c1ccc(Cl)c(Cl)c1,2.22%
3,CN1CCC(C(=O)Nc2ccc(-c3ccc(-c4nc5ccccc5[nH]4)cc3)cc2)CC1,2.61%
4,CCn1ccc2c(N3CCCCS3(=O)=O)cc(C(=O)N[C@@H](Cc3ccccc3)[C@H](O)CNC(C)(C)CCCC(C)C)cc21,3.62%
5,CC(CN1CCN(C)CC1)C(=O)Nc1ccc(-c2cccc(-c3nc4cc(C(F)(F)F)ccc4[nH]3)c2)cc1 (stereo unspecified),2.78%
6,COc1cccc(NC(=O)N2CCOC(CCN3CCC4(CCc5ccccc54)CC3)(c3ccc(Cl)c(Cl)c3)C2)c1 (stereo unspecified),7.38%
7,COc1ccc(NC(=O)c2ccc3[nH]c(-c4ccc(Cl)cc4)cc3c2)cc1OCCN(C)C,12.2%
8,CCCCOc1ccc(/C=C/c2ccc(-c3c(C)[nH]c(C)c(Cl)c3=O)s2)cc1,0.92%
9,CC(=O)Oc1cc(C(=O)Nc2ccc(Cl)cc2)cc2ccccc12,15.4%
10,O=C(Nc1ccc(Cl)c(C(F)(F)F)c1)c1ccc(Cl)c([N+](=O)[O-])c1,7.89%
11,Cc1cc(NCCC(=O)NCc2cccc(F)c2)nc(Nc2ccccc2)n1,2.27%
12,O=C(Nc1cccc(-c2cccc(-c3nc4cc(F)ccc4[nH]3)c2)c1)c1ccncc1,4.63%
13,COc1ccc(C=NN=c2c3ccccc3[nH]c3ccccc23)c2ccccc12,1.54%
14,CCc1ccccc1N1CCN(CCCC(=O)c2ccc(NC(=O)c3cc(Cl)cc(Cl)c3)cc2)CC1,4.42%
15,COc1ccc(O)c(Cc2cnc3nc(N)[nH]c(=O)c3c2C)c1,4.93%
16,Clc1cccnc1N1CCN(c2ncccc2Cl)CC1,0%
17,CCOc1ccccc1CCNCC1CCN(CC2CCCCC2)CC1,4.32%
18,C[C@H](Cc1ccc(C[C@@H](C)NCC(O)c2cc(Cl)c(N)c(Cl)c2)cc1)NCC(O)c1cc(Cl)c(N)c(Cl)c1 (stereo partly specified),9.35%
19,Cc1cc(N[C@@H](CC(C)C)C(=O)NCCc2ccccc2)nc(NCCc2cccs2)n1,13.9%

row,Compound,IFI
1,CCOC(=O)c1ccc(-n2c(C)cc(C=C3SC(=Nc4ccccc4)N(C4CCCC4)C3=O)c2C)cc1,4.17%
2,Cc1cc(-c2ccc(NC(=O)N3CCc4cc(Br)c(N5CCN(C)CC5)cc43)cc2)cc(C)n1,1.48%
3,Nc1ncc(-c2ccc3nccc(-c4ccncc4)c3c2)cc1S(=O)(=O)N1CCOCC1,8.11%
4,COc1cc(NC(=O)Nc2cccc3ccccc23)c(OC)cc1Cl,2.11%
5,CCNc1cc(C(=O)N[C@@H](Cc2ccccc2)[C@H](O)CNC2C3CC4CC(C3)CC2C4)cc(N2CCCCS2(=O)=O)c1 (stereo partly specified),1.47%
6,C=C[C@H]1CN2CC[C@H]1C[C@H]2[C@H](O)c1ccnc2ccc(OC)cc12,0.73% and 0.71% and -0%
7,CC1(C)NC(N)=NC(=N)N1OCCSCc1cc(Cl)sc1Cl,4.93%
8,O=C(Nc1cccc(-c2nn3ccccc3c2-c2ccnc(Nc3cccc(N4CCCC4=O)c3)n2)c1)c1cc(F)ccc1F,7.75%
9,O=C(Nc1cccc(-c2cccc(-c3nc4cc(C(F)(F)F)ccc4[nH]3)c2)c1)c1cccnc1,4.59%
10,CCN(CCS(C)(=O)=O)Cc1ccc(-c2ccc3ncnc(Nc4ccc(OCc5cccc(F)c5)c(Cl)c4)c3c2)o1,2.1%
11,O=C(Nc1ccc(-c2ccc(-c3nc4cc(C(F)(F)F)ccc4[nH]3)s2)cc1)c1ccoc1,8.04%
12,CCCc1cc(Cc2cnc(N)nc2N)cc(CCC)c1OCCCC(=O)OCC,12.1%
13,Cc1cccc(-c2c(C)nc(N)nc2N)c1,1.6%
14,O=C(NC1CCN(CCC[C@]2(c3ccc(Cl)c(Cl)c3)CCCN(C(=O)c3ccccc3)C2)CC1)c1ccc(Cl)cc1,16.8%
15,O=C(NCCc1ccccc1)N(Cc1cccc(-c2ccc(CNCCc3ccccc3)cc2)c1)C1CCN(Cc2ccccc2)CC1,9.35%
16,COc1ccc(C(O)CNC(C)CCc2ccc(F)cc2)cc1C(F)(F)F (stereo unspecified),5.34%
17,Fc1ccc2[nH]c(-c3cccc(-c4ccc(CNCc5cnn(-c6ccccc6)n5)cc4)c3)nc2c1,3.28%
18,COc1ccc(C2=C(Nc3ccc4oc5ccccc5c4c3)c3ccccc3C2=O)cc1,1.48%
